# Reference: PubChem BioAssay AID504832 (National Center for Advancing Translational Sciences (NCATS), 2011)
# Hit rate of the full screen: of about 310,000 compounds, about 18,000 (5.8%) were called active. The shares of active, inactive and inconclusive entries below differ from those in the screen. Calls follow the shape of the dose curve; as a rule, active = well fitted inhibition curve with a large enough effect; inconclusive = small, poorly fitted or top-dose-only effect, or another doubt; inactive = no such curve, though single readings can be large or run the other way. No potency is given beside an inconclusive call; the fits are too rough.
# Experiment: Primary qHTS for delayed death inhibitors of the malarial parasite plastid, 48 hour incubation
# Settings: P. falciparum luciferase growth in erythrocytes; series mostly up to 28.7 µM; activity change, negative = inhibition: at the top concentration
# Outline: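 Luminescence readout; reporter = integrated firefly luciferase in P. falciparum. RBC culture at 2% hematocrit, 0.1% parasitemia final, 37 C/5% CO2; decreased signal taken as growth inhibition.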
# % is scaled to controls: 0 for no effect and ±100 for the full control effect; potency is read from the fitted curve at half-maximal effect; tags tell the direction and shape of the fitted curve.
SMILES,"activity change, negative = inhibition",Potency
COc1ccc(Cn2c(=S)[nH]c3cc(C(=O)NCc4cccnc4)ccc3c2=O)cc1,inactive: 4.34%,–
COc1ccc(CC(=O)NC(C)c2nnc(SCCC(=O)Nc3ccccc3)n2C)cc1 (centres undefined),inactive: -11.5%,–
Cc1ccc(CNC(=O)[C@H]2C[C@@H]2[C@H](NP(=O)(c2ccccc2)c2ccccc2)c2ccccc2)o1,–,"inconclusive [inhibitor, single point]"
CCOc1ccc(CCNC(=O)CCNS(=O)(=O)c2ccc3c(c2)CCN3C(C)=O)cc1OCC,–,"inconclusive [inhibitor, partial curve, poor fit]"
CC(C)(Sc1cc(C(C)(C)C)c(O)c(C(C)(C)C)c1)Sc1cc(C(C)(C)C)c(O)c(C(C)(C)C)c1,–,active: 7.21 µM
CC1CCN(C(=S)NC(=O)c2ccc(C(C)(C)C)cc2)CC1,–,"inconclusive [inhibitor, single point]"
CN(Cc1c(C(=O)N/N=C/c2cc(F)ccc2F)nnn1-c1nonc1N)C1CCCCC1,–,"inconclusive [inhibitor, single point]"
COC(=O)C1CN(S(=O)(=O)c2cc(OC)ccc2OC)CCS1 (centres undefined),inactive: 0.143%,–
COCCCn1c(-c2ccc(OC)cc2)cc(C(=O)NC2CCCCCCC2)c1C,–,active: 13.1 µM
CC(C)OP(=O)(OC(C)C)C(Nc1ccccc1)c1cccc2c1OCO2 (centres undefined),–,"inconclusive [inhibitor, single point]"
CCOC(=O)N1CCN(S(=O)(=O)c2ccc(F)c(C(=O)Nc3cccc(Cl)c3C)c2)CC1,–,active: 11.7 µM
O=C(/C=C/c1ccc(Br)cc1)Nc1ccc(S(=O)(=O)Nc2ncccn2)cc1,inactive: -6.35%,–
CC(OC(=O)c1ccccc1NCCO)C(=O)NCC(=O)Nc1ccc(F)c(F)c1F (centres undefined),–,"inconclusive [inhibitor, single point]"
Fc1ccc(-c2nc3c(-c4ccc(Cl)cc4)cnn3cc2CCN2CCOCC2)cc1,–,"inconclusive [inhibitor, partial curve]"
C/C(=N\NC(=O)C(C)Oc1ccc([N+](=O)[O-])cc1)c1ccccn1 (centres undefined),–,"inconclusive [inhibitor, partial curve]"
COc1ccc(-c2nnc(SCCC(=O)O)n2-c2ccccc2)cc1,inactive: 11.9%,–
O=C(c1cccc(C(F)(F)F)c1)N1CCN(CCc2ccccc2)CC1,–,"inconclusive [inhibitor, full curve, poor fit]"
COc1ccc2[nH]c(=O)c(CN(c3ccc(C)c(C)c3)S(C)(=O)=O)cc2c1,inactive: -21.2%,–
O=c1c2ccccc2nc(-c2ccco2)n1/N=C/c1ccccc1O,–,"inconclusive [inhibitor, single point]"
CCN(CC)c1ccc(C2Nc3cccc4cccc(c34)N2)c(O)c1,–,active: 3.7 µM
O=C(O)c1ccc2oc(SCC(=O)N3CCCCC3)nc2c1,inactive: 116%,–
Clc1ccc(C2=NNC(=NCc3ccc4c(c3)OCO4)SC2)cc1,–,"inconclusive [inhibitor, single point]"
CCn1c(CS(=O)Cc2ccc(Cl)cc2Cl)nnc1SCc1c(Cl)cccc1Cl (centres undefined),–,"inconclusive [inhibitor, single point]"
Cc1ccc(N=Nc2ccc(O)c(P(=O)(c3ccccc3)c3ccccc3)c2)cc1,–,"inconclusive [inhibitor, single point]"
Cc1cc(C)cc(NC(=O)C2CCCN2S(=O)(=O)c2ccc3c(c2)C(C)(C)C(=O)N3C)c1 (centres undefined),–,"inconclusive [inhibitor, partial curve, poor fit]"

SMILES,"activity change, negative = inhibition",Potency
COc1ccc(S(=O)(=O)NCC(=O)N(CC(=O)NCC2CCCO2)Cc2ccccc2)cc1 (centres undefined),–,"inconclusive [inhibitor, partial curve, poor fit]"
CCOc1cccc(CN2CCCC(C(=O)Nc3cccc(-n4cccn4)c3)C2)c1 (centres undefined),–,"inconclusive [inhibitor, partial curve, poor fit]"
COc1cc(/C=N\NC(=O)c2ccc(Cl)cc2)ccc1Oc1ccc([N+](=O)[O-])cn1,inactive: -17.2%,–
COC(=O)c1ccc(NC(=O)NCCCl)cc1,inactive: -9.76%,–
Oc1cc2cc(CCN3CCN(c4nsc5ccccc45)CC3)c(Cl)cc2[nH]1,–,active: 13.5 µM
CC(C)C(NC(=O)c1ccc(C(C)(C)C)cc1)C(=O)N1CCC(C(N)=O)CC1 (centres undefined),–,"inconclusive [inhibitor, single point]"
Cc1c(C)c2c(OCC(=O)O)cc3c(c2oc1=O)CCC(C)(C)O3,inactive: 20.5% [at 0.00184 µM],–
O=C(CN1CCOCC1)Nc1ccc(N2CCN(c3ccccc3)CC2)c(F)c1,inactive: 175%,–
COc1cccc(CSc2nc3ccccc3[nH]2)c1,inactive: 150%,–
COc1ccc(NC(=O)CCNC(=O)c2ccc([N+](=O)[O-])cc2)cc1S(=O)(=O)N1CCCCC1,–,"inconclusive [inhibitor, single point]"
COc1ccc(NC(=O)C(C)N=C2NS(=O)(=O)c3ccccc32)cc1S(N)(=O)=O (centres undefined),inactive: -4.52%,–
Cn1cc(CCNC(=O)CC2C(=O)NCCN2Cc2cccc(Oc3ccccc3)c2)cn1 (centres undefined),inactive: 5.63%,–
CCOC(=O)C(=CNc1ccc(C(F)(F)F)cc1)C(=O)OCC,–,"inconclusive [inhibitor, single point]"
N#CC1=C(N)N(c2ccccc2)C2=C(C(=O)CCC2)C1c1cccs1 (centres undefined),–,"inconclusive [inhibitor, partial curve]"
CC(C)CNC(=O)C1c2ccccc2Oc2ccccc21,–,"inconclusive [inhibitor, single point]"
COc1ccc(OCCCC(=O)Nc2nc(-c3ccccn3)cs2)cc1,–,"inconclusive [inhibitor, partial curve, poor fit]"
CC(O)COc1ccc(/C(=N/O)c2ccccc2)cc1 (centres undefined),inactive: 33.1%,–
CCOc1ccc(N2C(=O)CC(NCCNc3ccc([N+](=O)[O-])cn3)C2=O)cc1 (centres undefined),inactive: 2.81%,–
Oc1cc(Nc2ccncc2)cc2cccnc12,–,active: 11.7 µM
COc1ccc(/C=C/C(=O)N2CC(C)OC(C)C2)cc1OC (centres undefined),inactive: 10.4%,–
O=C(CN1C(=O)NC(c2ccccc2)(c2ccccc2)C1=O)NCc1ccccc1,inactive: -13.7%,–
CCOc1ccc(C(=O)Nc2ccc(N3CCCC3)cc2)cc1,–,"inconclusive [inhibitor, single point]"
CCN(CCCNC(=O)CCCn1c(=O)[nH]c2ccccc2c1=O)c1cccc(C)c1,–,"inconclusive [inhibitor, partial curve]"
COC(=O)CCNC(=O)Cn1cnc2sc3c(c2c1=O)CCCC3,inactive: 8.98%,–
COc1ccc(S(=O)(=O)CC(=O)c2cc3cc(Br)ccc3oc2=O)cc1,inactive: 8.43%,–

SMILES,"activity change, negative = inhibition",Potency
CNC(=O)c1ccsc1NC(=O)c1ccc(S(=O)(=O)N2CCc3ccccc32)cc1,–,"inconclusive [inhibitor, single point]"
COc1ccc(CCn2c(=N)c(C(=O)NC3CCCC3)cc3c(=O)n4ccccc4nc32)cc1OC,–,active: 4.15 µM
COc1cccc(C(C(=O)NCc2ccco2)N(C(=O)Cn2nnc3ccccc32)C2CC2)c1OC (centres undefined),–,"inconclusive [inhibitor, single point]"
FC(F)(F)c1ccc(C2[C@H]3CN(Cc4cccnc4)[C@H](c4ccccc4)C34CC2(c2cccnc2)C4)cc1 (some centres undefined),–,active: 1.85 µM
Cc1ccc(C)c(COC(=O)c2cccc(S(=O)(=O)N3CCCC3)c2)c1,–,"inconclusive [inhibitor, single point]"
COc1ccccc1C(=O)NCCC(=O)Nc1ccc(S(=O)(=O)N2C(C)CCCC2C)cc1 (centres undefined),–,active: 14.7 µM
Cc1noc(C)c1COC(=O)c1ccc(F)c(S(=O)(=O)N2CCCCC2)c1,inactive: -9.1%,–
CCN(CC)S(=O)(=O)c1ccc(-c2nnc(SCC(N)=O)n2CC)cc1,inactive: 8.04%,–
CCCCC(Sc1nc(N)c(NC(=O)c2ccc(OC)cc2)c(=O)[nH]1)C(=O)O (centres undefined),inactive: 30.7%,–
CC(Sc1ccsc1[N+](=O)[O-])C(=O)NCc1ccco1 (centres undefined),inactive: -8.87%,–
COc1ccccc1CNC(=O)C1CCN(S(=O)(=O)c2ccc(N3CCCC3=O)cc2)CC1,–,active: 11.7 µM
NS(=O)(=O)c1ccc(NC(=S)NC(=O)c2ccc(Br)o2)cc1,inactive: 22.6%,–
O=C(Nc1ccc2nc(N3CCOCC3)sc2c1)c1ccc(F)cc1,inactive: -27.9%,–
O=c1c(-c2ccc(Br)cc2)[n+]([O-])c2ccccc2n1OCc1ccccn1,inactive: 4.79%,–
COc1ccc(CCNC(=O)COC(=O)c2cnc(C)cn2)cc1OC,inactive: 12%,–
Cc1sc2ncnc(SCc3ccco3)c2c1C,–,"inconclusive [inhibitor, partial curve, poor fit]"
CS(=O)(=O)c1ccc(NC(=O)C2CCCN(C(=O)c3ccc(Cl)cc3)C2)cc1 (centres undefined),–,"inconclusive [inhibitor, single point]"
Cc1c(Cl)c(C(F)(F)F)nn1CC(=O)NCc1ccccc1,–,"inconclusive [inhibitor, partial curve, poor fit]"
CC1CCC2(CC1)NC(=O)N(CC(=O)c1ccc(Cl)s1)C2=O (centres undefined),inactive: -6.27%,–
COC(=O)c1cn(NC(=O)C2CCCO2)c(=O)c2ccccc12 (centres undefined),inactive: 0.54%,–
O=C(O)/C=C/C(=O)Nc1cc(F)ccc1F,inactive: -0.986%,–
COc1ccc(Cn2nnnc2C(CC(C)C)N2CCN(c3ccccc3)CC2)cc1 (centres undefined),–,active: 7.38 µM
CC(NC(=O)C(C)N1CCN(Cc2ccccc2)CC1)c1ccc(F)cc1 (centres undefined),inactive: -0.2%,–
CS(=O)(=O)c1ccccc1C(=O)N1CCN(S(=O)(=O)c2ccc(C3CCCCC3)cc2)CC1,–,"inconclusive [inhibitor, partial curve, poor fit]"
